Results reported in PubChem BioAssay AID463173 (ICCB-Longwood Screening Facility, Harvard Medical School, 2010).
Out of some 52,000 compounds screened, about 1,700 (3.3%) were called active. Cut-off read from the data, not from the text of the source: active = survival mostly below about 52% (no sharp cut-off); inactive = mostly above about 56%. Some of the results follow.

test system: Wild type; assay: S. aureus survival, RN4220 and DeltatarO strains – OD600, teichoic acid synthesis inhibitors, primary screen (AID 463173); conditions: S. aureus RN4220 wild type/DeltatarO growth, OD600, 18 h, hits give low values, screened at 18.75 µg/mL (by protocol)

Compound | survival
O=C(c1cn(CC(=O)N2CCOCC2)c2ccccc12)C1CC1 | inactive: 92%
COc1ccccc1CNc1nc(-c2ccco2)nn1S(=O)(=O)c1ccc2ccccc2c1 | inactive: 116%
COCC(=O)N(CCc1ccccc1)Cc1cc2cccc(C)c2n2nnnc12 | inactive: 115%
CCC1=Nc2cc(C(=O)NCCCOC)ccc2Sc2ccc(Br)cc21 | inactive: 66%
O=C(c1cc2nc(-c3ccccc3)cc(-c3ccccc3)n2n1)N1CCCC1 | inactive: 100%
CC(C)CC(=O)Nc1cccc(-c2nc3ccccc3[nH]2)c1 | inactive: 95%
Cc1cccc(-c2noc(-c3ccccc3OCC(=O)Nc3ccc([N+](=O)[O-])cc3)n2)c1 | inactive: 84%
Cc1ccc(SCCNC(=O)CN(c2ccccc2)S(=O)(=O)N(C)C)cc1 | inactive: 69%
Cc1ccc(S(=O)(=O)NC(=O)NC(C)(C)C)cc1 | inactive: 87%
CNC(=O)C1CCC(Cn2c(=O)c3sccc3n(CC(=O)NCc3ccccc3)c2=O)CC1 (configuration not stated) | active: 0%
COCCCNC(=O)c1oc2c(c1C)-c1nn(Cc3ccccc3Cl)cc1CC2 | inactive: 84%
COC(=O)C1(c2ccccc2)NC(c2cccs2)C2C(=O)N(C)C(=O)C21 (configuration not stated) | inactive: 110%
Cc1ccccc1C(=O)Nc1sc2c(c1C(=O)NCc1ccco1)CCC(C(C)(C)C)C2 (configuration not stated) | inactive: 88%
CCN1CCc2nc3sc(C(=O)Nc4cccc(Cl)c4C)c(N)c3cc2C1 | inactive: 149%
CC1CCC(C(=O)NC(C(=O)OCC(=O)c2ccccc2)C(C)C)CC1 (configuration not stated) | inactive: 91%
CCOc1cc(C(=O)OCc2cc(=O)n3nc(CC)sc3n2)cc(OCC)c1OCC | inactive: 82%
Cc1ccccc1-c1nnc(NC(=O)CC(C)C)s1 | inactive: 116%
CCC(=O)N1CCc2cc(Br)cc(S(=O)(=O)N3CCCC(C(=O)Nc4ccc(C(C)C)cc4)C3)c21 (configuration not stated) | inactive: 106%
CCc1cnc2c(c1SCC(=O)c1ccccc1)c(=O)n(C)c(=O)n2C | inactive: 69%

Compound | survival
O=c1cc(CSc2ccc(Cl)cc2)[nH]c(=S)[nH]1 | inactive: 107%
O=C(Nc1cccc(-c2nnn(CC(=O)N3CCc4ccccc4C3)n2)c1)C1CCC1 | inactive: 112%
COC(=O)c1ccccc1NC(=O)c1c(C)oc2ncn(C)c(=O)c12 | inactive: 95%
COc1ccc(OCc2nc3ccccc3n2Cc2ccccc2Cl)cc1 | inactive: 72%
CCCCC(=O)N(c1ccc2oc(C)c(C(C)=O)c2c1)S(=O)(=O)c1ccc(F)cc1C | inactive: 70%
CCOc1sc2nc(C)n(CC(=O)Nc3cccc(C)c3)c(=O)c2c1C | inactive: 128%
Cc1nn(-c2ccccc2)c2sc(C(=O)N/N=C/c3ccccc3)cc12 | inactive: 109%
COc1ccc(-c2ccc(NS(=O)(=O)c3ccc(OC)c(OC)c3)cc2)nn1 | inactive: 75%
Cc1cn2c(=O)cc(COc3ccccc3NC(=O)c3ccco3)nc2s1 | inactive: 83%
Cc1c(C(=O)NCc2cccc(Cl)c2)sc2nc3n(c(=O)c12)CCC3 | inactive: 118%
Cc1ccc(CNS(=O)(=O)c2cc3[nH]c(=O)c(=O)[nH]c3cc2C)cc1 | inactive: 60%
Cc1ccc(S(=O)(=O)NC2(C(F)(F)F)C(=O)Nc3c2c(=O)[nH]c(=O)n3-c2ccccc2)cc1 (configuration not stated) | inactive: 100%
NC(=O)c1nc(-c2ccc(F)c(F)c2)nc2c1[nH]c(=O)n2-c1cccc(Cl)c1 | inactive: 91%
CCN1CCN(CCCNC(=O)c2cnn(-c3ccc(C)cc3C)c2C2CCN(C(=O)OC(C)(C)C)CC2)CC1 | inactive: 148%
O=S(=O)(c1ccc(Br)cc1)c1nnn2c1nc(N1CCOCC1)c1sccc12 | inactive: 75%
C/C(=N/OC(=O)c1ccccc1)c1cccs1 | inactive: 107%
CSc1nc2sc3c(c2c(=O)n1Cc1ccccc1)CCC(C(C)(C)C)C3 (configuration not stated) | inactive: 113%
Cc1ccc(C(=O)Nc2ccc3nc(SCC(=O)N4CCCc5ccccc54)sc3c2)cc1 | inactive: 83%
COc1ccc(N2CCN(CC(=O)c3ccc(OC)c(OC)c3)CC2)cc1 | inactive: 106%

Compound | survival
O=C(COC(=O)c1cc(-c2ccccc2)nc2ccccc12)c1ccc(Br)cc1 | inactive: 78%
Cc1ccc(CNC(=O)Cc2ccc(NC(=O)N3CCSc4ncccc43)cc2)cc1 | inactive: 75%
CCOc1ccccc1NC(=O)CN1C(=O)COc2ccc(S(=O)(=O)NC3CCCC3)cc21 | inactive: 83%
CCN=C1Sc2nc3ccc(OCC)cc3cc2CN1CCOC | inactive: 100%
O=C1NN(c2ccccc2)C(=O)C2C3C=CC(C4CC34)C12 (configuration not stated) | inactive: 111%
CCCNC(=O)c1ccc(Cn2c(=O)c3cccn3c3cccnc32)cc1 | inactive: 89%
CCc1ccccc1NC(=O)c1ccc2c(c1)nnn2C1CCCC1 | inactive: 120%
COc1ccccc1CNC(=O)CCC1N=C2c3ccccc3N=C(SCc3ccc(Cl)cc3)N2C1=O (configuration not stated) | active: 0%
COCCCNC(=O)CCCn1c(=O)c2cccn2c2ccccc21 | inactive: 84%
Cc1ccc(N2CCN(S(=O)(=O)c3ccc(Cl)c4ccccc34)CC2)c(C)c1 | inactive: 88%
O=C(Nc1cccc(C(F)(F)F)c1)c1cccc(C(=O)Nc2cccc(C(F)(F)F)c2)c1 | inactive: 86%
COc1ccccc1N1CCN(S(=O)(=O)c2cccc3nsnc23)CC1 | inactive: 115%
CCOC(=O)c1c(C)c(-c2ccccc2)n(CC(=O)Nc2cc(C)cc(C)c2)c1C | inactive: 93%
O=C1CCCc2cc(S(=O)(=O)NCC3CCC(C(=O)NCc4ccc(F)cc4)CC3)ccc2N1 (configuration not stated) | inactive: 93%
O=C(CSc1nnc(-c2cccc(F)c2)c(-c2cccc(F)c2)n1)NC1CCCCC1 | inactive: 45%
COc1ccc(-n2nc3c(N4CCC(C(=O)NCCc5ccccc5)CC4)nnc(C)c3c2C)cc1 | inactive: 80%
COc1cccc(CSc2nc(-c3ccccc3F)nc3c2Cc2c(CO)cnc(C)c2O3)c1 | inactive: 83%
O=C(Cn1ncc2c(=O)oc3ccccc3c21)N1CCN(c2ccc(Cl)cc2)CC1 | inactive: 78%
CCOC(=O)c1c(NC(=O)COc2ccccc2Br)sc2c1CCCCC2 | inactive: 39%
